PubChem BioAssay (NCATS)
This list was built around the results that the source calls inconclusive (neither active nor inactive); the mix of calls is not that of the screen. For some assays here: Where the call is inconclusive, the potency comes from a doubtful curve fit. The source made the active and inactive calls. Calls follow the shape of the dose curve; as a rule, active = well fitted curve in the direction sought with a large enough effect; inconclusive = small, poorly fitted or top-dose-only effect, or another doubt; inactive = no such curve, though single readings can be large; an effect the other way counts as inactive or inconclusive.

Legend:
[1] = HPAF-II Cancer Cell Toxicity qHTS against the NCATS CANVASS Library (AID 1347346); also: potency is read from the fitted curve at half-maximal effect; nearly all actives have a fitted effect of over 55% in size
Method in brief: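 1000 HPAF-II cells/well; 4 h pre-incubation; 11-pnt compound titration; 72 h, 37 degrees C/5% CO2; CellTiter-Glo, 15 min RT; luminescence read.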

[2] = UWB1.289 Cancer Cell Toxicity qHTS against the NCATS CANVASS Library (AID 1347347); also: potency is read from the fitted curve at half-maximal effect; nearly all actives have a fitted effect of over 60% in size
Method in brief: (§1)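 Cells were seeded at 1000 per well, allowed 4 h at 37 degrees C/5% CO2, then pin-treated with an 11-point compound series. After 72 h, viability was read as CellTiter-Glo luminescence following 15min at room temperature.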

[3] = SW1088 Cancer Cell Toxicity qHTS against the NCATS CANVASS Library (AID 1347350); also: potency is read from the fitted curve at half-maximal effect; nearly all actives have a fitted effect of over 75% in size
Method in brief: as §1

[4] = A2780 Cisplatin Sensitive Ovarian Cancer Cell Toxicity qHTS against the NCATS CANVASS Library (AID 1347353); also: nearly all actives have a fitted effect of over 60% in size
Method in brief: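 750 cells/well, 4 h settle; 11-pt cpd titration; 72 h, 37 °C, 5% CO2; ATPLite 10 min RT; luminescence read.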

[5] = KB-8-5-11 Cancer Cell Toxicity qHTS against the NCATS CANVASS Library (AID 1347364); conditions: activity change, negative = toxicity: at 46.1 µM (top of the series); also: potency is read from the fitted curve at half-maximal effect; nearly all actives have a fitted effect of over 75% in size
Method in brief: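 CellTiter-Glo luminescence after 72 h exposure; 500 KB-8-5-11 cells/well, DMEM/10% FBS, 37C, 5% CO2; compounds in 11-pt qHTS. Follow-up confirmation included medium with 1uM tariquidar.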

[6] = qHTS for ATAD5 Antagonist screened against the NCATS CANVASS Library (AID 1347370); also: potency is read from the fitted curve at half-maximal effect; nearly all actives have a fitted effect of over 65% in size
Method in brief: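 HEK293T-ATAD5 luc reporter, 2000 cells/well; 5hr attach; cpd + 10 uM 5-FUrd; 16hr 37C, 5% CO2. Readouts: CellTiter-Fluor fluorescence (1hr), then Amplite luciferase luminescence (30min RT).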

[7] = J3T Cancer Cell Toxicity qHTS against the NCATS CANVASS Library (AID 1347371);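 also: J3T is a canine glioma cancer cell line seeded at 500 cells per well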
Method in brief: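 Dog glioma J3T, 500 cells/well; cpd 11-pt qHTS; 72 hr, 37C/5% CO2; CellTiterGlo ATP luminescence readout.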

[8] = qHTS for Hypoxia signaling pathway (HIF-1) antagonists against the NCATS CANVASS Library (AID 1347374); also: potency is read from the fitted curve at half-maximal effect; nearly all actives have a fitted effect of over 60% in size
Method in brief: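 Beta-lactamase reporter under HRE control in ME-180 cells; CoCl2 stimulus (60 uM solution as added), compounds 11-pt qHTS, 17 h 37C. CCF4 dye 2 h RT, 460/530 nm emission. CellTiter-Glo viability in same wells.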

[9] = qHTS for Antimalaria activity screened against the NCATS CANVASS Library (AID 1347380); also: nearly all actives have a fitted effect of over 40% in size; also: potency is read from the fitted curve at half-maximal effect;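 as to activity change, negative = inhibition: Plasmodium falciparum strain Dd2 asexual parasites grown in red blood cells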
Method in brief: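 SYBR Green fluorescence (ex 485, em 535 nm) read after saponin/Triton lysis and 18 h further incubation; Dd2 asexual blood-stage parasites, 72 h compound exposure, 11-pt concentration series, 2.5% hematocrit, 0.3% parasitemia.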

[10] = qHTS for Activators of p53 Stress Response Pathway screened against the NCATS CANVASS Library (AID 1347388); also: potency is read from the fitted curve at half-maximal effect
Method in brief: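 Beta-lactamase reporter driven by p53 response elements in HCT-116 cells, read as the 460 nm/530 nm emission ratio after CCF4 loading, following 16 h of exposure to an 11-point series. Cell viability was measured in the same wells by CellTiter-Glo luminescence.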

[11] = Secretion counterscreen for inhibitors of the SERCaMP assay screened against the NCATS CANVASS Library (AID 1347390); conditions: SH-SY5Y constitutive GLuc secretion, luminescence, 20 h; activity change, negative = inhibition: at 76.6 µM (top of the series);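 also: light from luciferase secreted into medium read as a measure of general secretion; potency is read from the fitted curve at half-maximal effect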
Method in brief: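 Counterscreen for secretory-pathway interference: after 4 h attachment, SH-SY5Y-GLuc cells were exposed 20 hours to compounds (final 0.001 - 77 uM), then coelenterazine added and GLuc luminescence recorded; Brefeldin A served as control.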

[12] = qHTS for activators of Nrf2/ARE signaling pathway screened against the NCATS CANVASS Library (AID 1347391); also: potency is read from the fitted curve at half-maximal effect; nearly all actives have a fitted effect of over 60% in size
Method in brief: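 HepG2 ARE-bla; cpd 11-pt qHTS, 16 h 37C/5% CO2; CCF4 substrate 2 h RT; read ex 405 / em 460 + 530 nm. Viability by CellTiter-Glo luminescence, 30 min RT.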

[13] = qHTS for inhibitors of ER calcium dysfunction: SERCaMP assay screened against the NCATS CANVASS Library (AID 1347393); conditions: SH-SY5Y GLuc-SERCaMP (Gaussia luciferase released on ER calcium loss) secretion, thapsigargin, luminescence; activity change, negative = inhibition: at 76.6 µM (top of the series) unless noted; also: potency is read from the fitted curve at half-maximal effect; nearly all actives have a fitted effect of over 40% in size
Method in brief: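 Thapsigargin-induced ER calcium depletion drives GLuc-SERCaMP secretion from SH-SY5Y cells; compounds given 16 h beforehand were scored by lowered coelenterazine luminescence after 4 h challenge.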

[14] = Vero-766 cells viability qHTS against the NCATS CANVASS Library: Counterscreen for Zika virus inhibition assay (AID 1347394); conditions: Vero 766 viability, CellTiter-Glo luminescence, 72 h; series mostly up to 46.1 µM
Method in brief: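 CellTiter Glo luminescence measured cytotoxicity after 72 h at 37C in uninfected Vero 766 cells, plated at 1000 cells/well. Compounds were applied in an 11-point series. Wells without cells defined 100% inhibition.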

[15] = Panc-1005 Cancer Cell Toxicity qHTS against the NCATS CANVASS Library (AID 1347349)
Method in brief: as §1

[16] = UWB1.289-WTBRCA1 Cancer Cell Toxicity qHTS against the NCATS CANVASS Library (AID 1347354); also: potency is read from the fitted curve at half-maximal effect
Method in brief: (§2)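 1000 cells/well, 4 h pre-incubation 37 °C/5% CO2; 11-pnt titration; 72 h; CellTiter-Glo 15 min RT, luminescence.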

[17] = HEK-293 Cancer Cell Toxicity qHTS against the NCATS CANVASS Library (AID 1347355); also: potency is read from the fitted curve at half-maximal effect; nearly all actives have a fitted effect of over 65% in size
Method in brief: as §2

[18] = tested on: NAD(P)H diaphorase (Clostridium kluyveri); assay: Diaphorse counterscreen qHTS: Assay Interference Panel against the NCATS CANVASS Library (AID 1347362); also: potency is read from the fitted curve at half-maximal effect
Method in brief: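 Counterscreen for coupling-enzyme interference: resorufin fluorescence from resazurin/NADH turnover, read after 5 min at room temperature. Compounds were tested over an 11-point series after 15 min dark preincubation with diaphorase in PBS-Tween.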

[19] = qHTS for Hypoxia signaling pathway (HIF-1) agonists against the NCATS CANVASS Library (AID 1347375)
Method in brief: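 Read-out: beta-lactamase FRET (CCF4-AM, ex 405, em 460 and 530 nm) after 2 h at room temperature. ME-180 cells stably carrying HRE-bla were treated 17 h at 37C with compounds in an 11-point concentration series.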

[20] = DH5-alpha competent E. coli microbial cell viability qHTS against the NCATS CANVASS Library (AID 1347377); conditions: viability signal change, negative = cytotoxic: at 46.1 µM (top of the series); also: potency is read from the fitted curve at half-maximal effect
Method in brief: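 Luminescent ATP read-out (BacTiter-Glo, 20 min RT) after overnight 37C culture of DH5-alpha E. coli with compounds; daunomycin control at 0.2 nM–9.2 uM final.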

[21] = qHTS for H2AX Agonists against the NCATS CANVASS Library (AID 1347378); also: potency is read from the fitted curve at half-maximal effect
Method in brief: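 Phospho-H2AX (S139) in CHO-K1 lysates measured by HTRF, reported as 665/615 nm emission ratio after 24 hr antibody incubation at room temperature. Cells were first treated with a compound series for 3 hr at 37C (0.76% DMSO final).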

[22] = qHTS for Inflammasome Signaling Inhibitors: IL-1-beta AlphaLISA screen against the NCATS CANVASS Library (AID 1347379)
Method in brief: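 THP-1, 1 hr compound pre-incubation, then LPS 250 ng/mL + ATP 1.25 mM (final); 16 hr total with compound; IL-1B AlphaLISA, ex 680/em 615 nm; 11-point qHTS, up to 57.5 uM final.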

[23] = qHTS assay for small molecule disruptors of mitochondrial membrane potential screened against the NCATS CANVASS Library (AID 1347389)
Method in brief: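 Red/green fluorescence ratio read-out: J-aggregates ex 540/em 590 nm, monomers ex 490/em 535 nm. HepG2, 1 hr compound treatment, then 30 min Mito-MPS dye at 37C. 11-pt qHTS concentration series.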

[24] = qHTS for activators of dead-cell proteases activity screened against the NCATS CANVASS Library (AID 1347392);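 also: luminescence from protease leaking out of membrane-damaged cells cleaving impermeant substrate; rising signal means more cytotoxicity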
Method in brief: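 Luminescent dead-cell protease readout (AAF-aminoluciferin, 15 min, room temperature) after 5 h compound treatment of HepG2 cells (2000/well, pre-attached 18 h). Eleven concentrations.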

[25] = qHTS for inhibitors of Wild type Zika virus screened against the NCATS CANVASS Library (AID 1347396); also: potency is read from the fitted curve at half-maximal effect
Method in brief: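 Protection against wild-type Zika cytopathic effect is measured in African green monkey Vero 766 cells exposed to an 11-point compound series. Surviving cells are quantified by CellTiter Glo luminescence after 72 h.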

Measured: Potency
Tags tell the direction and shape of the fitted curve.

C/C=C(/C)c1cc(O)c(C)c2c1Oc1cc(O)cc(C)c1C(=O)O2
inactive: [4] | [7] | [9]
inconclusive: [1] 18.8 µM [cytotoxic, single point] | [2] 21.1 µM [cytotoxic, partial curve] | [3] 21.1 µM [cytotoxic, single point] | [5] 14.8 µM [cytotoxic, partial curve, poor fit] | [6] 18.6 µM [inhibitor, partial curve] | [8] 29.8 µM [inhibitor, single point] | [10] 33.1 µM [activator, partial curve, poor fit] | [11] 7.67 µM [inhibitor, partial curve, poor fit] | [12] 6.6 µM [activator, full curve] | [13] 12.2 µM [inhibitor, partial curve, poor fit] | [14] 33.1 µM [cytotoxic, single point]

C=CC(CCCCC)C1C(=O)NC(=O)C1C(=O)C1C(/C=C/C)C=CC2CC(C(=O)O)CC(C)C21 (configuration not stated)
inactive: [19] | [24]
inconclusive: [2] 9.41 µM [cytotoxic, partial curve] | [15] 18.8 µM [cytotoxic, partial curve, poor fit] | [16] 16.7 µM [cytotoxic, partial curve, poor fit] | [17] 20.9 µM [cytotoxic, partial curve] | [18] 27.2 µM [inhibitor, partial curve, poor fit] | [5] 23.5 µM [cytotoxic, partial curve] | [8] 21.1 µM [inhibitor, single point] | [20] 18.6 µM [rising, partial curve, poor fit] | [21] 43.3 µM [activator, single point] | [22] 43.2 µM [inhibitor, single point] | [9] 5.29 µM [cytotoxic, partial curve, poor fit] | [10] 23.4 µM [activator, single point] | [23] 37.1 µM [inhibitor, partial curve, poor fit] | [25] 20.8 µM [inhibitor, partial curve]
active: [1] 9.43 µM | [14] 23.4 µM
